Reference: PMC4336329 (PLoS ONE, 2015)
Out of some 310,000 compounds screened, about 14,000 (4.5%) showed an effect of 50% or more. Effects have a minus sign here. This is one part of the list.

molecular target: human ether-à-go-go-related gene (hERG) potassium channel (human, UniProt Q12809); assay: primary screen, population patch clamp on CHO cells stably expressing hERG
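Note: peak tail current of the secondary pulse compared with the same well before compound.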

Sequence of human ether-à-go-go-related gene (hERG) potassium channel (Q12809 whole entry, looked up): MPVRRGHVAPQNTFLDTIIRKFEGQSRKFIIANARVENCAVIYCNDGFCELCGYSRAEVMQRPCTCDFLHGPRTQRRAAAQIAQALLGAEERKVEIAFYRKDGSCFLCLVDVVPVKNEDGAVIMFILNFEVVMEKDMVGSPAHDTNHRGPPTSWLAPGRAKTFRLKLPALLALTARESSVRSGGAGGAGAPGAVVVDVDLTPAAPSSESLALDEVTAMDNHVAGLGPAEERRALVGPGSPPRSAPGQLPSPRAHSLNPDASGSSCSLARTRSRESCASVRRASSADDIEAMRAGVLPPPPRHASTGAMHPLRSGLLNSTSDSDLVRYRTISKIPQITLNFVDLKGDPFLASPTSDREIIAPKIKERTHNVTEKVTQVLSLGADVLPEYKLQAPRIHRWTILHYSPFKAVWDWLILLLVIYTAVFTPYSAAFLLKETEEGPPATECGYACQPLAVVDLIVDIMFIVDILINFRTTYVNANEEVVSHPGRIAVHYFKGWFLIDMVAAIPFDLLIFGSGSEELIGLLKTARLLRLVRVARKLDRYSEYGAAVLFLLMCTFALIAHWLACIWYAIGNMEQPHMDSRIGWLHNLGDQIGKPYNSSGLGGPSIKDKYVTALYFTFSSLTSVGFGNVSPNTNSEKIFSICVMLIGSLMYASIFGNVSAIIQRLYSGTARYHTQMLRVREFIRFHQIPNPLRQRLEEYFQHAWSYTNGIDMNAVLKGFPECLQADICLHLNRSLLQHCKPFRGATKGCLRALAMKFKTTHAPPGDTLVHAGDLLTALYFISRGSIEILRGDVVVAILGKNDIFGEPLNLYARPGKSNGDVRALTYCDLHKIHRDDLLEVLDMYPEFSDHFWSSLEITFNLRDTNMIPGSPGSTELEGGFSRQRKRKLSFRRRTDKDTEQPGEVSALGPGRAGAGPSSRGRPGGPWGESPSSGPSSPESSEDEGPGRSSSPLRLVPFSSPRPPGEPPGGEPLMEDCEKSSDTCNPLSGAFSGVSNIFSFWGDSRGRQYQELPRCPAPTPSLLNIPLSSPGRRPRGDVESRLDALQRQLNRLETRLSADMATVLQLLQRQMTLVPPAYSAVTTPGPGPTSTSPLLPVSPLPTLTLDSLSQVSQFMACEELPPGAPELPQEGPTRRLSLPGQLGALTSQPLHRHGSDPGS

Structure (SMILES)	hERG current change (%, negative = inhibition) at 10uM
CC(c1nccs1)N(C)C(=O)c1ccc(OC2CCN(CCc3ccccc3)CC2)cc1 (centres unmarked)	-51.4%
Oc1ccccc1Nc1nc(-c2ccccc2O)nc2ccccc12	13.2%
O=C(CN1CCCCC1)Nc1scc2c1c(=O)oc1ccccc12	-10.1%
COc1ccc(CNC(=O)CN(C(=O)c2csnn2)c2cccc(F)c2)cc1	-12.8%
Cc1cc(NC(=O)c2ccc(S(=O)(=O)N3CCc4ccccc43)cc2)no1	7.22%
CC(=O)c1cc2c(cc1N/C(=N/S(=O)(=O)c1ccccc1)c1ccc(Cl)cc1)OCO2	-13.2%
COc1ccc(N(CCCN2C(=O)c3cccc4cccc(c34)C2=O)C(=O)c2ccncc2)cc1	-9.05%
CC1(C)OC(=O)N(c2ccccn2)C1(C)O (centres unmarked)	17.1%
COc1cccc(-c2cc(C(=O)Nc3cc(C)on3)no2)c1	5.61%
COc1cc(C(=O)OCC(=O)N2CCCCC2C)cc(NC(=O)c2cccs2)c1OC (centres unmarked)	3.38%
O=C(CCN1C(=O)C2C3C=CC(C3)C2C1=O)Nc1ccccc1 (centres unmarked)	21.1%
CCCCOC(=O)c1nc[nH]c1C(=O)OCCCC	34.2%
Cc1cc(C)cc(C(=O)N/N=C/c2ccoc2)c1	5.26%
C/C(=N\NC(=O)c1cc(Cl)ccc1O)c1ccc(Br)s1	-3.88%
Nn1c(Cc2cccc3ccccc23)n[nH]c1=S	14.1%
Cc1noc(NS(=O)(=O)c2ccc(NC(=O)CSc3nc4c(cc3C#N)CCC4)cc2)c1C	9.3%
CC(C)(C)NCCCCOc1ccc(F)cc1	-1.76%
CCn1cc(C2N3CC4(C)CN2CC(C)(C3)C4=O)c2ccccc21 (centres unmarked)	7.47%
COCCNC(=O)C(c1ccc(C)cc1)N(CCOC)C(=O)CCC(=O)Nc1nccs1 (centres unmarked)	21.3%
Cc1ccc(N(C(=O)c2ccco2)C(C(=O)NC2CCCC2)c2cccnc2)cc1C (centres unmarked)	-0.0195%
Cc1ccc(F)c(NC(=O)c2cncn2-c2ccccc2)c1	-17.7%
O=C(CN1C(=O)NC2(CCc3ccccc32)C1=O)NCCc1ccccc1 (centres unmarked)	-6.43%

Structure (SMILES)	hERG current change (%, negative = inhibition) at 10uM
CCOc1ccc(S(=O)(=O)N(CC)CC(=O)NCc2ccco2)cc1C	-13.3%
CC(C)(CSc1nncn1N)NS(=O)(=O)c1ccc(Cl)cc1	7.31%
Cc1cc(C(=O)NNC(=O)c2ccc(S(=O)(=O)N(C)C)cc2)c(C)o1	31%
Cc1noc(C)c1S(=O)(=O)N1CCC(C(=O)N2CCC(N3CCCCC3)CC2)CC1	14.3%
CCOC(=O)c1[nH]c(C)c(C(=O)OCC(=O)NC(C)c2ccc(F)cc2)c1C (centres unmarked)	4.81%
Nc1nc(-c2ccccn2)nc(N)c1Cc1ccc(Cl)cc1Cl	3.43%
O=C(Nc1ccc(Cl)c(Cl)c1)Nc1cc(S(=O)(=O)N2CCOCC2)ccc1N1CCCC1	-16.6%
CCn1c(C)nc2cc(C(=O)N/N=C/c3cccc(O)c3O)ccc21	7.54%
CC1CN(C(=O)c2ccc3c(c2)OCO3)OC(c2ccccc2)O1 (centres unmarked)	-0.0529%
CCOCCCN(C)C1CCN(C(=O)c2oc3ccccc3c2NC(=O)Cc2ccc(F)cc2)CC1	-77.8%
CC(C)CN(CC(C)C)C(=O)Nc1ccc(F)cc1F	19.5%
O=C(COC(=O)c1ccco1)Nc1ccc2c(c1)OCCO2	14.6%
CSc1ccc(CCNC(=O)c2cccc3c2C(=O)N(C2CCCCC2)C3)cc1	-14.4%
Nc1c(Cl)cc(-c2csc(N3CCCC3c3nc4cc(Cl)c(N5CCCCC5)cc4n3CCCO)n2)cc1Cl (centres unmarked)	14.6%
NC(=O)c1ccc(NC(=O)CNC(c2ccccc2)c2ccccc2)cc1	7.12%
Clc1cccc(Cl)c1COn1nnc2ccccc21	-3.48%
CCn1c(=O)c(C(=O)Nc2nc3ccccc3[nH]2)c(O)c2ccccc21	-28.3%
COCCCNC(=O)CS(=O)(=O)Cc1nc(-c2ccccc2C)oc1C	6.26%
COc1ccc(N(C(=O)c2cccnc2)S(=O)(=O)c2ccc(OC)c(OC)c2)cc1	-31.3%
Cc1nc(C(F)(F)F)ccc1C(=O)NN1CCOCC1	26.4%
Cn1c2ccccc2c(=O)c2c(=O)n(Cc3ccco3)c(-c3ccc(C(C)(C)C)cc3)nc21	8.96%
COc1ccc(-c2cc(C3CCN(Cc4cccc(C(F)(F)F)c4)CC3)[nH]n2)cc1	-55.2%

Structure (SMILES)	hERG current change (%, negative = inhibition) at 10uM
COc1cccc(NC(=O)Cc2nc(-c3ccccc3)sc2-c2ccc(C)cc2)c1	11.8%
COc1ccc(C(=N/O)/C(=N/O)c2ccc(OC)cc2)cc1	-4.76%
Cc1ccc(C(=O)c2cc([N+](=O)[O-])ccc2N2CCCCC2)cc1C	6.24%
CC(C)(C)NC(=O)C(=O)NCCC1=CCCCC1	1.45%
Cc1ccc(C(=O)Nc2ccc3ccccc3c2)cc1	13.3%
Cc1ccc2[nH]c(C(=O)O)c(NC(=O)c3ccccc3[N+](=O)[O-])c2c1	-1.51%
O=C(NCc1ccncc1)c1ccc(S(=O)(=O)Nc2ccccc2)cc1	-12.8%
COc1cccc2cc(C(=O)NCc3ccc(Cl)cc3)c(=N)oc12	15.6%
Cc1cccc(OCc2nnc(SCC(=O)N3c4ccccc4Sc4ccc(Cl)cc43)o2)c1	5.19%
Cc1ccc2cccc(Oc3nnnn3-c3ccccc3)c2n1	-6.46%
CCCNC(=O)Cn1cc(S(=O)(=O)N2CCCC2)c(S(=O)(=O)N2CCCC2)c1	13.5%
Cn1c(C(C)(O)C(O)c2ccccc2)nc2ccccc21 (centres unmarked)	-34.6%
O=C(C[n+]1cccc2ccccc21)c1ccc(NC(=O)c2ccccc2)cc1.[Br-]	8.45%
O=C(CN1C(=O)C2CC=CCC2C1=O)Nc1ccc(F)cc1F (centres unmarked)	-2.27%
COc1ccc(-n2nc(C(=O)NCC(=O)NCCCN3CC(C)CC(C)C3)c3ccccc3c2=O)cc1OC (centres unmarked)	-34%
Cc1c(-c2ccccc2)nc(N)c(C#N)c1-c1cccs1	-20.6%
CNC(=O)CN1C(=O)c2ccccc2S1(=O)=O	11.4%
O=C1CCc2cc(S(=O)(=O)N3CCN(C(=O)c4ccco4)CC3)ccc2N1	-37.2%
CC(=O)C(Sc1ccc2nnc(-c3cccnc3)n2n1)C(C)=O	-2.29%
COc1ccc(N2C(=O)[C@@H]3[C@H](C2=O)[C@H]2c4ccccc4C=CN2[C@@H]3C(=O)Nc2ccccc2)cc1	-10.5%
CCOC(=O)CSc1nnc(CNC(=O)c2cccs2)n1CCc1ccccc1	-28.1%
CC1(C)CC(=O)C2=C(C1)Nc1ccccc1NC2c1ccc(F)cc1 (centres unmarked)	5.79%

Structure (SMILES)	hERG current change (%, negative = inhibition) at 10uM
COCCn1c(SCc2nnc(-c3ccc(OC)c(OC)c3)o2)nnc1-c1ccncc1	1.42%
Cc1ccccc1N/C(=C(/C(Cl)=C(Cl)Cl)[N+](=O)[O-])n1nnc2ccccc21	-13.6%
CCC(=O)/C=C1\Sc2ccccc2N1CC	-3.72%
CCCN(C(=O)COC(=O)CCOc1ccccc1C)c1c(N)n(Cc2ccccc2)c(=O)[nH]c1=O	-2.26%
CCCNS(=O)(=O)c1ccc(CCC(=O)N2CCN(c3ccc(OC)cc3)CC2)cc1	-22.1%
OCCN1CCN(CC#CCC(c2ccccc2)c2ccccc2)CC1	-22.9%
CN(CC#CC(O)(c1ccccc1)c1ccccc1)C(C)(C)C	-69%
COCc1cc(C)nc2sc(C(=O)N3CCCC3)c(N)c12	2.89%
COc1ccc(-n2nc3ccc(NS(C)(=O)=O)cc3n2)cc1Cl	-8.42%
COCCNC(=O)Cn1cnc([N+](=O)[O-])n1	6.93%
CC(Cc1ccccn1)NC(=O)c1ccc(OC2CCN(Cc3ccccn3)CC2)cc1 (centres unmarked)	11.2%
CCN1CCN(c2ccc(S(=O)(=O)N3CCOCC3)cc2NC(=O)COc2ccc(F)cc2Cl)CC1	-24.4%
COCCN(C(=S)Nc1c(C)cccc1C)C(C)c1cccnc1 (centres unmarked)	-28.2%
CCOC(=O)Cn1nc(NC(=O)c2cc(OC)cc(OC)c2)cc1C	2.85%
CCS(=O)(=O)N1CCN=C1SCc1ccccc1	14.8%
O=[N+]([O-])/C(=C\Nc1ccccc1Cl)S(=O)(=O)c1ccccc1	7.65%
Clc1ccc(OCCN2CCOCC2)cc1	17%
CCNC(=O)c1sc(-c2ccccc2)nc1C	-6.56%
Cc1ccc(C(=O)Nc2c(C(=O)NCc3ccco3)cnn2-c2ccccc2)cc1	-29%
CC(C)CN(C(=O)CN1CCN(S(=O)(=O)c2ccccc2)CC1)c1c(N)n(CC(C)C)c(=O)[nH]c1=O	-8.48%
